According to the supplement of paper PMC3334620:
In all, about 33,000 sequences were measured (“E-score (-0.5 to 0.5)”: median about -0.016, highest 2% from about 0.32 on). This is one part of the list.

Biological target: T1, Stp1 (UniProt B3LFK1)
T1 sequence: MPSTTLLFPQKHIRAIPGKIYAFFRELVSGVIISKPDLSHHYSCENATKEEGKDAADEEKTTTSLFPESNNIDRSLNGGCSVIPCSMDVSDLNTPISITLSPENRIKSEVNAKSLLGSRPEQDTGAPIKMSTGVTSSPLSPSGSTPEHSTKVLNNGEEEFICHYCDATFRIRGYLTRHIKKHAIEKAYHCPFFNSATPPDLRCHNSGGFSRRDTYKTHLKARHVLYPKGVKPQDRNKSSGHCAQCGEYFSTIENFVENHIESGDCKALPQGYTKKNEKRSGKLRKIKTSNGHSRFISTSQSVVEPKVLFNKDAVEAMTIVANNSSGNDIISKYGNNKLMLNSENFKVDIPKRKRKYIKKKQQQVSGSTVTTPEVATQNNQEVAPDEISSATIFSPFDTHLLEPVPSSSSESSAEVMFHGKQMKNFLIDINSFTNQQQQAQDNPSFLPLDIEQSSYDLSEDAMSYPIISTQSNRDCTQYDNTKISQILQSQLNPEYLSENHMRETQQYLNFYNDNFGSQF
Assay: PBM E-score (8-mer binding enrichment) (E-score (-0.5 to 0.5)); higher = stronger / more preferred TF binding; most listed sequences are background and not binding sites
Conditions: protein concentration: 200 nM; construct: GST-full length
Method: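 Universal 'all 10-mer' protein binding microarrays (Agilent AMADID 015681) probed with GST-tagged S. cerevisiae TFs (full-length or DBD) made by in vitro transcription/translation (PURExpress), about 100-200 nM. Bound TF was detected with fluorescent anti-GST. Each ungapped 8-mer (which stands for itself and its reverse complement) is scored by the PBM enrichment score (E-score), a modified Wilcoxon-Mann-Whitney statistic from -0.5 to +0.5, computed with the Universal PBM Analysis Suite. Scale: above 0.35 generally sequence-specific binding.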

Row | Sequence | PBM E-score
1 | CGGAAAGC | 0.0194
2 | TTCGCGAA | 0.132
3 | CATAGATA | 0.0148
4 | CGGTCCAA | -0.176
5 | CTATCATC | 0.101
6 | ACTGAGGG | -0.343
7 | CATACAGG | 0.0384
8 | CCCCTGAG | -0.119
9 | AGATGTAA | 0.105
10 | ATAAAGCA | 0.0108
11 | ATATCAAG | 0.117
12 | ATATGCCC | -0.155
13 | TCCACGGA | 0.226
14 | AATCGTTA | -0.0976
15 | CGTGATCA | -0.00858
16 | ATAGGAAG | -0.186
17 | ATGCCAGG | -0.0492
18 | AGGAACTA | -0.0798
19 | ACATGTCG | 0.0297
20 | ATCATGGC | -0.109
21 | GGCGCTGA | 0.327
22 | ACTGCCAC | 0.132
23 | AAGCATAC | -0.0218
24 | AGTCGTCC | -0.199
25 | CACCGTTC | 0.0204

Row | Sequence | PBM E-score
26 | CCGCCACG | 0.0257
27 | ACTTGGTC | -0.0254
28 | ACTATGGG | -0.212
29 | GGAGCATA | 0.0292
30 | GTTTTCAA | 0.265
31 | TAAAGATA | 0.134
32 | GGGTGCAA | -0.0292
33 | GGGAAAGA | -0.21
34 | CAAGGCGC | 0.4
35 | AAAATGCG | 0.0834
36 | GTCAATGA | -0.0766
37 | ACTGAGCT | -0.083
38 | CTGAGATA | 0.0286
39 | AAAGACTT | -0.129
40 | CGACTGTA | -0.178
41 | ACACCGGC | 0.02
42 | TATCCTAA | 0.0431
43 | AAGCAGTC | -0.277
44 | CCATACGA | 0.0449
45 | ACAATCTG | 0.081
46 | ATCAAGTA | 0.0281
47 | TAGTAAAA | 0.185
48 | AGTATGTA | -0.0981
49 | ACCGAGGA | -0.0552
50 | ACGCTAGA | -0.157

Row | Sequence | PBM E-score
51 | TAGTGCCA | 0.203
52 | CTTCACTA | -0.00379
53 | AGACTGCG | 0.0168
54 | GATGACCC | -0.261
55 | ACTCGAAC | -0.014
56 | ATACCTAC | 0.042
57 | CCAGCTCC | -0.143
58 | GAATTGCA | -0.0065
59 | ACACCGGG | -0.236
60 | AGACTGGG | -0.255
61 | AGTACGGC | 0.436
62 | GCTTGAGA | -0.225
63 | CTAGACGA | 0.105
64 | ATAGTTTA | -0.0737
65 | AAGTTTAC | 0.0256
66 | TATTCTGA | -0.256
67 | CTATGGAG | -0.278
68 | ACTAACGG | 0.0898
69 | ATGGCGTA | 0.139
70 | GCTACTTA | -0.075
71 | GAAGACTA | -0.0197
72 | GATGGCCC | -0.173
73 | GATAACAA | 0.179
74 | CCCTAGTA | -0.00421
75 | CTCCACGC | -0.0456

Row | Sequence | PBM E-score
76 | ACCGACCT | -0.149
77 | CTACTCCA | -0.0998
78 | GACTGAGA | -0.0801
79 | ACTCGCCT | -0.00914
80 | CATGGTGA | -0.088
81 | GCGTCCCC | -0.184
82 | CGCTCGAG | 0.196
83 | AGGGTGGC | -0.16
84 | AACAGGAT | -0.0644
85 | AAAAGGAA | 0.107
86 | GGGCCAAC | -0.221
87 | CTTTGGCA | -0.165
88 | AGCTGGAC | -0.196
89 | AAAACTAC | 0.205
90 | GACTCTGC | -0.178
91 | GGAATGTA | -0.064
92 | CTACCTAA | 0.0159
93 | CATGTGAA | -0.0251
94 | GGTCAAAA | -0.0425
95 | CCCAGGGC | -0.103
96 | CATGGCTC | 0.0564
97 | ACCGGACC | -0.175
98 | CCAATGTC | -0.205
99 | TAAGCAGA | -0.178
100 | CCAACGCA | -0.0795

Row | Sequence | PBM E-score
101 | CCCAACGA | -0.182
102 | ACCTTAGT | 0.00759
103 | GACGACTC | -0.233
104 | GAGGGATC | -0.228
105 | ACTCGTGC | -0.00445
106 | AGTCGGCG | 0.2
107 | GAAGTTTA | 0.0956
108 | AGCTGAAA | -0.0168
109 | ATGGCTCA | -0.0765
110 | AATGTCCT | -0.246
111 | ACCTGCGG | 0.196
112 | CGCATGCC | 0.199
113 | CACGATCA | 0.188
114 | AGGTACTC | -0.138
115 | AGGACTCA | -0.164
116 | AACCTGAC | -0.0483
117 | AGACCTCA | 0.0171
118 | CGTCCCAG | -0.329
119 | ACGTGTTG | 0.0307
120 | AGATGCTC | -0.108
121 | CAGTGGCG | 0.0512
122 | GTAGGCCA | -0.0358
123 | CTCGCAGC | -0.133
124 | AGCTATAC | -0.0861
125 | ACCGATGG | 0.0108

Row | Sequence | PBM E-score
126 | GAAGTTGC | 0.0438
127 | CGACATAA | 0.06
128 | TAGCGACA | -0.146
129 | CACCAGAG | -0.0081
130 | AAGACGCA | -0.139
131 | GTTACTTA | -0.00901
132 | AGTTTTAG | -0.149
133 | GCGCCCGA | 0.0872
134 | GGTATAAC | -0.0297
135 | ACGCCTCA | 0.313
136 | ATCGGCGC | 0.342
137 | GCATTAAC | 0.0874
138 | AGGAAGAC | -0.188
139 | ACACGATG | 0.0654
140 | AGCTCCAC | -0.199
141 | AAATAAGG | 0.0174
142 | ACATTTTC | 0.0893
143 | GACCTCCC | -0.384
144 | ATCGTCAC | -0.128
145 | TAGGATAA | -0.039
146 | CGCTAACC | -0.0457
147 | GTGCTTAA | 0.107
148 | CCAGAAGG | 0.0295
149 | TCATCGGA | -0.142
150 | TCGGGGCA | -0.189

Row | Sequence | PBM E-score
151 | ACCTAATA | 0.182
152 | ACAACTAA | 0.208
153 | GCAAGTCA | -0.0296
154 | ACTGACAA | -0.0168
155 | GGACATGA | -0.0592
156 | ATCCTAAA | -0.167
157 | AGGGTGCC | 0.0272
158 | GGTCGCGA | 0.13
159 | ATAGTCAA | -0.0637
160 | AATTCAAA | 0.0612
161 | ACCAAGGG | -0.116
162 | GGGTGTAA | -0.108
163 | CCTCCTAG | -0.0286
164 | AGGACTGG | -0.0956
165 | GTGACATA | 0.111
166 | CTCCAGAG | -0.141
167 | CCCACTGA | -0.175
168 | CCACAGCC | -0.119
169 | CCCAGTCC | -0.269
170 | CACAAAGG | 0.0246
171 | AGCAGACA | -0.136
172 | ACGGACAT | 0.154
